According to the supplement of paper PMC3724861:
This is one part of the list.

Tested on: T1, Caupolican (Caup) homeodomain DNA-binding domain
T1 sequence: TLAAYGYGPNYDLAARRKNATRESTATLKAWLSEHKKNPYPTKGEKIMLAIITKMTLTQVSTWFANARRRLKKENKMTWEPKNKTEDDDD
Assay: PBM E-score (8-mer, recovered from the published 9-mer minima) (E-score (dimensionless, -0.5 to 0.5)); Drosophila protein; higher = stronger relative binding preference, active = 0.31 or more
Method in brief: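 Caup's homeodomain DNA-binding domain (residues 214-303) was made by in vitro transcription and translation and applied at 100 nM to custom-designed protein binding microarrays. Each value is an enrichment score that gives relative binding preference for a short DNA word, with higher meaning stronger. The 8-mer values were recovered from published 9-mer scores, each of which was the minimum of its two constituent 8-mer scores. A cutoff of 0.31 marks candidate sites.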

Row | Sequence | PBM E-score
1 | AACAATGG | inactive: 0.198
2 | AACTCAAT | inactive: 0.0711
3 | CCCAGCAG | inactive: -0.201
4 | AACTGGCA | inactive: -0.139
5 | CCGCATGC | inactive: -0.125
6 | CGGTACCC | inactive: -0.183
7 | TTCCCCAA | inactive: -0.0437
8 | ACTATACT | inactive: 0.114
9 | CAAGTTAA | inactive: 0.137
10 | ATGGGAAT | inactive: 0.0473
11 | GCATGCCA | inactive: -0.0807
12 | TCGTCCAA | inactive: -0.0617
13 | CAAAGGCA | ≥ 0.0673
14 | TATTTTGA | inactive: 0.126
15 | GCCATTTA | inactive: -0.0224
16 | CAGCATCA | inactive: 0.058
17 | CTATCATA | inactive: 0.0368
18 | AAACGACT | inactive: 0.0374
19 | CCCATTTC | inactive: -0.136
20 | AAATAGCT | inactive: -0.0104
21 | GTGCGCTA | inactive: -0.0015
22 | CTGTTCAA | inactive: 0.0792
23 | CACGCTTC | inactive: -0.0968

Row | Sequence | PBM E-score
24 | CACATACG | inactive: 0.0593
25 | CGTGTACC | active: 0.35
26 | GGCCATTA | inactive: -0.0842
27 | ACGCGATA | ≥ 0.0811
28 | CAGTTGGC | inactive: -0.0825
29 | ATTAGTCA | ≥ 0.175
30 | AAGCAGCA | inactive: -0.0143
31 | ACTATTAA | inactive: 0.145
32 | AGAAATGC | inactive: 0.0833
33 | ATTCTGGA | inactive: 0.11
34 | CGAGGAAC | inactive: -0.00281
35 | AATCGCAG | inactive: 0.0242
36 | CGGTCTGA | inactive: -0.0584
37 | AATATCGG | inactive: 0.0331
38 | GTTGCCAA | inactive: 0.0175
39 | GGGCGATA | inactive: -0.0779
40 | CAGATAAA | inactive: 0.0646
41 | TCAGACAA | inactive: 0.185
42 | AAACCCGG | inactive: -0.123
43 | AATTTCTA | inactive: 0.0285
44 | GTGCCCCA | inactive: -0.179
45 | GACCACCA | inactive: -0.0619
46 | AGGTCTTC | inactive: -0.0685

Row | Sequence | PBM E-score
47 | GATCTTTA | inactive: 0.00911
48 | ATTGGATG | inactive: 0.183
49 | AAAATCAT | inactive: 0.182
50 | ATGTCCTG | inactive: 0.223
51 | AATGGAGT | inactive: -0.0641
52 | ACCTAGCT | inactive: -0.0673
53 | AAGATCAC | inactive: 0.0799
54 | GCCAGGTA | inactive: -0.0274
55 | CCAGGCTC | inactive: -0.116
56 | CCGGGTTC | inactive: -0.169
57 | GAGAGCCA | inactive: -0.127
58 | TATCCGAA | inactive: 0.03
59 | GTCGCGAA | inactive: 0.00326
60 | ACCGACAT | inactive: 0.307
61 | ACCAAACC | inactive: 0.0399
62 | CGAACAGA | inactive: 0.126
63 | GAAGATCA | inactive: 0.0158
64 | GCGATGCA | inactive: -0.136
65 | AACTATAC | inactive: 0.14
66 | AACGTTAC | inactive: 0.1
67 | GGGTGACC | inactive: -0.223
68 | CCTGGGAG | inactive: -0.195
69 | CGAGGATC | inactive: -0.0233

Row | Sequence | PBM E-score
70 | AAGGGCTA | inactive: -0.0555
71 | AGGCGCTA | ≥ -0.0508
72 | ACGCACAG | inactive: -0.0279
73 | CTTGCACC | inactive: -0.027
74 | CACTCATG | inactive: 0.0716
75 | CCGCCCAC | inactive: -0.192
76 | GACATTCC | inactive: 0.186
77 | CAAAACAA | inactive: 0.188
78 | GGCGGGTA | inactive: -0.156
79 | AAGGATGT | inactive: 0.185
80 | AGTTCATC | inactive: 0.0305
81 | AAGGATCC | inactive: -0.0547
82 | AATGATTA | ≥ 0.239
83 | CGTCTCGA | inactive: 0.0714
84 | GGCGACAC | inactive: 0.0375
85 | GTCTATGA | inactive: 0.0569
86 | CCGGCAAG | inactive: -0.146
87 | AAATATTG | inactive: 0.0593
88 | AGGCTAAA | inactive: -0.0788
89 | CACCGTTA | inactive: 0.0313
90 | CGCCATCC | inactive: -0.134
91 | GTAAACAA | active: 0.321
92 | GTGTCTTA | inactive: 0.17

Row | Sequence | PBM E-score
93 | ACCATAGT | inactive: 0.042
94 | GCTATACA | inactive: 0.189
95 | CACTCCAA | inactive: -0.071
96 | ATAGCTCC | inactive: -0.0652
97 | CAAAAGTC | inactive: -0.0435
98 | ATGGGAAA | inactive: -0.0244
99 | GAATAGTC | inactive: -0.00141
100 | TATCCCCA | inactive: -0.0238
101 | GCGTAATA | inactive: 0.076
102 | AGTACGCG | inactive: -0.00986
103 | GACTCGGC | inactive: -0.192
104 | CTTCCGGA | inactive: -0.173
105 | AAGATCCA | inactive: -0.0566
106 | CTTTCTTA | inactive: 0.0085
107 | GTTCAATA | inactive: 0.0594
108 | AACCTCTG | inactive: -0.105
109 | CCCTCCCA | ≥ -0.108
110 | AACAAGTA | active: 0.33
111 | CCTGGGAC | inactive: -0.148
112 | CGGGGTCA | inactive: -0.182
